{"source": "patent US20260248922A1", "about": "“TREATMENT OF SIGNS, SYMPTOMS AND/OR COMPLICATIONS OF VIRAL, BACTERIAL, PROTOZOAL, AND/OR FUNGAL INFECTIONS BY HIGH PENETRATION PRODRUGS” (priority 2022, published 2026)", "key": {"H1N1 virus [1]": {"tested_on": "H1N1 virus", "assay": "H1N1 virus infection mouse model (Example 66)", "format": "in vivo, mice", "details": "for Animals died/total / Animals with lung lesion/total: transdermal once a day; for protection from death, lung damages and clinical signs of illness (conclusion in words): transdermal, low, middle and high dose", "protocol": "A total of seventy mice (7 groups, 10/group) were used in this study. At day 0, mice were anesthetized with isoflurane and held in a dorsal recumbent position for administration of 0.1×TCID50/mouse virus (new batch) by internasal instillation, from day 2 post challenge, mice were received a single dose of different concentrations of test article or vehicle control once a day up to 15th day with dose initiation on day 2 post challenge. Group 1 served as an infected control group and was treated with vehicle (35% ethanol). […] Mice were observed following viral challenge for clinical signs of illness including body weights, health score, morbidity and mortality.\nLung lesions and peribronchiolitis of all deceased and surviving animals were characterized (Table 9)."}, "[2]": {"tested_on": "cecal slurry-induced sepsis", "assay": "Cecal slurry-induced sepsis mouse model (Example 74)", "format": "in vivo, C57/BL6 mice", "details": "for Animals died/total / survival: transdermal once a day"}, "[3]": {"tested_on": "Methicillin-resistant S. aureus strain NRS71 (Sangar 252)", "format": "in vivo, C57/BL6 mice", "details": "for Animals died/total / survival: transdermal once a day"}, "H1N1 virus [4]": {"tested_on": "H1N1 virus", "assay": "H1N1 virus infection mouse model (Example 68)", "format": "in vivo, mice", "details": "for Animals died/total / Animals with lung lesion/total: transdermal once a day; for protection from death, lung damages and clinical signs of illness (conclusion in words): transdermal, low, middle and high doses", "protocol": "A total of seventy mice (7 groups, 10/group) were used in this study. At day 0, mice were anesthetized with isoflurane and held in a dorsal recumbent position for administration of 0.1×TCID50/mouse virus (new batch) by internasal instillation, from day 2 post challenge, mice were received a single dose of different concentrations of test article or vehicle control once a day up to 15th day with dose initiation on day 2 post challenge. Group 1 served as an infected control group and was treated with vehicle (35% ethanol). 7% (pyrrolidin-2-yl)methyl 5-(2,4-difluorophenyl) salicylate hydrochloride in 35% ethanol (low dose: 25.0 mg/kg, group 2, mid dose: 49.9 mg/kg, group 3, and high dose: 99.8 mg/kg, group 4) and 7% (pyrrolidin-2-yl)methyl 5-(2,4-difluorophenyl) acetylsalicylate hydrochloride in 35% ethanol (low dose: 24.7 mg/kg, group 5, mid dose: 49.4 mg/kg, group 6, and high dose: 98.7 mg/kg, group 7) and vehicle (35% ethanol) were given by transdermal on the back of animal in an area of 2 cm×5 cm, 1.5 cm×3.5 cm, or 1 cm×2.5 cm for high, middle or low dose. Mice were observed following viral challenge for clinical signs of illness including body weights, health score, morbidity and mortality.\nLung lesions and peribronchiolitis of all deceased and surviving animals were characterized (Table 13)."}, "H1N1 virus [5]": {"tested_on": "H1N1 virus", "assay": "H1N1 virus infection mouse model (Example 67)", "format": "in vivo, mice", "details": "for Animals died/total / Animals with lung lesion/total: transdermal once a day; for protection from death, lung damages and clinical signs of illness (conclusion in words): transdermal, low, middle and high doses", "protocol": "A total of seventy mice (7 groups, 10/group) were used in this study. At day 0, mice were anesthetized with isoflurane and held in a dorsal recumbent position for administration of 0.1×TCID50/mouse virus (new batch) by internasal instillation, from day 2 post challenge, mice were received a single dose of different concentrations of test article or vehicle control once a day up to 15th day with dose initiation on day 2 post challenge. Group 1 served as an infected control group and was treated with vehicle (35% ethanol). 7% of (pyrrolidin-2-yl)methyl 2-[(2,3-dimethylphenyl)amino]benzoate hydrochloride in 35% ethanol (low dose: 25.0 mg/kg, group 2, mid dose: 50.1 mg/kg, group 3, and high dose: 100.1 mg/kg, group 4) and 7% of (pyrrolidin-2-yl)methyl α-methyl-4-(2-thienylcarbonyl)benzeneacetate hydrochloride in 35% ethanol (low dose: 24.9 mg/kg, group 5, mid dose: 49.8 mg/kg, group 6, and high dose: 99.6 mg/kg, group 7) and vehicle (35% ethanol) were given by transdermal on the back of animal in an area of 2 cm×5 cm, 1.5 cm×3.5 cm, or 1 cm×2.5 cm for high, middle or low dose. Mice were observed following viral challenge for clinical signs of illness including body weights, health score, morbidity and mortality.\nLung lesions and peribronchiolitis of all deceased and surviving animals were characterized (Table 11)."}}, "note": "Like-named read-outs stand apart in the source and are kept apart here.", "data": [{"smiles": "CC(=O)O.CCN(CC)CCOC(=O)CC1=C(C)/C(=C/c2ccc([S+](C)[O-])cc2)c2ccc(F)cc21", "note": "(centres unmarked) [Example 8]", "values": [{"measurement": "Animals died/total", "setting": "H1N1 virus [1]; group 5, low dose 25.5 mg/kg", "result": "4/10"}, {"measurement": "Animals with lung lesion/total", "setting": "H1N1 virus [1]; group 5, low dose 25.5 mg/kg", "result": "2/10"}, {"measurement": "Animals died/total", "setting": "H1N1 virus [1]; group 6, mid dose 50.9 mg/kg", "result": "3/10"}, {"measurement": "Animals with lung lesion/total", "setting": "H1N1 virus [1]; group 6, mid dose 50.9 mg/kg", "result": "2/10"}, {"measurement": "Animals died/total", "setting": "H1N1 virus [1]; group 7, high dose 101.9 mg/kg", "result": "5/10"}, {"measurement": "Animals with lung lesion/total", "setting": "H1N1 virus [1]; group 7, high dose 101.9 mg/kg", "result": "3/10"}, {"measurement": "protection from death, lung damages and clinical signs of illness (conclusion in words)", "setting": "H1N1 virus [1]", "result": "protected mice from death and lung damages, delayed and reduced the severity of clinical signs of illness"}]}, {"smiles": "CCN(CC)CCOC(=O)c1ccccc1OC(C)=O.Cl", "note": "[Example 4]", "values": [{"measurement": "Animals died/total", "setting": "[2]; group 2, low dose 25.2 mg/kg", "result": "6/10"}, {"measurement": "survival", "setting": "[2]; group 2, low dose 25.2 mg/kg", "result": 40, "unit": "%"}, {"measurement": "Animals died/total", "setting": "[2]; group 3, mid dose 50.4 mg/kg", "result": "4/10"}, {"measurement": "survival", "setting": "[2]; group 3, mid dose 50.4 mg/kg", "result": 60, "unit": "%"}, {"measurement": "Animals died/total", "setting": "[2]; group 4, high dose 100.8 mg/kg", "result": "2/10"}, {"measurement": "survival", "setting": "[2]; group 4, high dose 100.8 mg/kg", "result": 80, "unit": "%"}, {"measurement": "protection from death and clinical signs of illness (conclusion in words)", "setting": "[2]; transdermal, low, middle and high doses", "result": "protected mice from death and delayed and reduced the severity of clinical signs of illness"}, {"measurement": "Animals died/total", "setting": "[3]; group 2, low dose 25.2 mg/kg", "result": "8/10"}, {"measurement": "survival", "setting": "[3]; group 2, low dose 25.2 mg/kg", "result": 20, "unit": "%"}, {"measurement": "Animals died/total", "setting": "[3]; group 3, mid dose 50.4 mg/kg", "result": "7/10"}, {"measurement": "survival", "setting": "[3]; group 3, mid dose 50.4 mg/kg", "result": 30, "unit": "%"}, {"measurement": "Animals died/total", "setting": "[3]; group 4, high dose 100.8 mg/kg", "result": "5/10"}, {"measurement": "survival", "setting": "[3]; group 4, high dose 100.8 mg/kg", "result": 50, "unit": "%"}, {"measurement": "protection from death and clinical signs of illness (conclusion in words)", "setting": "[3]; transdermal, low, middle and high dose", "result": "protected mice from death and delayed and reduced the severity of clinical signs of illness"}]}, {"smiles": "Cl.O=C(OCC1CCCN1)c1cc(-c2ccc(F)cc2F)ccc1O", "note": "(centres unmarked) [Example 27, (pyrrolidin-2-yl)methyl 5-(2,4-difluorophenyl) salicylate hydrochloride]", "values": [{"measurement": "Animals died/total", "setting": "H1N1 virus [4]; group 2, low dose 25.0 mg/kg", "result": "7/10"}, {"measurement": "Animals with lung lesion/total", "setting": "H1N1 virus [4]; group 2, low dose 25.0 mg/kg", "result": "7/10"}, {"measurement": "Animals died/total", "setting": "H1N1 virus [4]; group 3, mid dose 49.9 mg/kg", "result": "5/10"}, {"measurement": "Animals with lung lesion/total", "setting": "H1N1 virus [4]; group 3, mid dose 49.9 mg/kg", "result": "5/10"}, {"measurement": "Animals died/total", "setting": "H1N1 virus [4]; group 4, high dose 99.8 mg/kg", "result": "4/10"}, {"measurement": "Animals with lung lesion/total", "setting": "H1N1 virus [4]; group 4, high dose 99.8 mg/kg", "result": "4/10"}, {"measurement": "protection from death, lung damages and clinical signs of illness (conclusion in words)", "setting": "H1N1 virus [4]", "result": "protected mice from death and lung damages, delayed and reduced the severity of clinical signs of illness"}]}, {"smiles": "CC(=O)Oc1ccc(-c2ccc(F)cc2F)cc1C(=O)OCC1CCCN1.Cl", "note": "(centres unmarked) [Example 28, (pyrrolidin-2-yl)methyl 5-(2,4-difluorophenyl) acetylsalicylate hydrochloride]", "values": [{"measurement": "Animals died/total", "setting": "H1N1 virus [4]; group 5, low dose 24.7 mg/kg", "result": "6/10"}, {"measurement": "Animals with lung lesion/total", "setting": "H1N1 virus [4]; group 5, low dose 24.7 mg/kg", "result": "4/10"}, {"measurement": "Animals died/total", "setting": "H1N1 virus [4]; group 6, mid dose 49.4 mg/kg", "result": "4/10"}, {"measurement": "Animals with lung lesion/total", "setting": "H1N1 virus [4]; group 6, mid dose 49.4 mg/kg", "result": "2/10"}, {"measurement": "Animals died/total", "setting": "H1N1 virus [4]; group 7, high dose 98.7 mg/kg", "result": "3/10"}, {"measurement": "Animals with lung lesion/total", "setting": "H1N1 virus [4]; group 7, high dose 98.7 mg/kg", "result": "1/10"}, {"measurement": "protection from death, lung damages and clinical signs of illness (conclusion in words)", "setting": "H1N1 virus [4]", "result": "protected mice from death and lung damages, delayed and reduced the severity of clinical signs of illness"}]}, {"smiles": "CC(C(=O)OCC1CCCN1)c1ccc(C(=O)c2cccs2)cc1.Cl", "note": "(stereo not drawn) [Example 33, (pyrrolidin-2-yl)methyl α-methyl-4-(2-thienylcarbonyl)benzeneacetate hydrochloride]", "values": [{"measurement": "Animals died/total", "setting": "H1N1 virus [5]; group 5, low dose 24.9 mg/kg", "result": "4/10"}, {"measurement": "Animals with lung lesion/total", "setting": "H1N1 virus [5]; group 5, low dose 24.9 mg/kg", "result": "3/10"}, {"measurement": "Animals died/total", "setting": "H1N1 virus [5]; group 6, mid dose 49.8 mg/kg", "result": "5/10"}, {"measurement": "Animals with lung lesion/total", "setting": "H1N1 virus [5]; group 6, mid dose 49.8 mg/kg", "result": "3/10"}, {"measurement": "Animals died/total", "setting": "H1N1 virus [5]; group 7, high dose 99.6 mg/kg", "result": "6/10"}, {"measurement": "Animals with lung lesion/total", "setting": "H1N1 virus [5]; group 7, high dose 99.6 mg/kg", "result": "3/10"}, {"measurement": "protection from death, lung damages and clinical signs of illness (conclusion in words)", "setting": "H1N1 virus [5]", "result": "protected mice from death and lung damages, delayed and reduced the severity of clinical signs of illness"}]}, {"smiles": "Cc1cccc(Nc2ccccc2C(=O)OCC2CCCN2)c1C.Cl", "note": "(centres unmarked) [Example 17, (pyrrolidin-2-yl)methyl 2-[(2,3-dimethylphenyl)amino]benzoate hydrochloride]", "values": [{"measurement": "Animals died/total", "setting": "H1N1 virus [5]; group 2, low dose 25.0 mg/kg", "result": "7/10"}, {"measurement": "Animals with lung lesion/total", "setting": "H1N1 virus [5]; group 2, low dose 25.0 mg/kg", "result": "7/10"}, {"measurement": "Animals died/total", "setting": "H1N1 virus [5]; group 3, mid dose 50.1 mg/kg", "result": "5/10"}, {"measurement": "Animals with lung lesion/total", "setting": "H1N1 virus [5]; group 3, mid dose 50.1 mg/kg", "result": "5/10"}, {"measurement": "Animals died/total", "setting": "H1N1 virus [5]; group 4, high dose 100.1 mg/kg", "result": "5/10"}, {"measurement": "Animals with lung lesion/total", "setting": "H1N1 virus [5]; group 4, high dose 100.1 mg/kg", "result": "4/10"}, {"measurement": "protection from death, lung damages and clinical signs of illness (conclusion in words)", "setting": "H1N1 virus [5]", "result": "protected mice from death and lung damages, delayed and reduced the severity of clinical signs of illness"}]}, {"smiles": "CC(C(=O)OCC1CCCN1)c1ccc(-c2ccccc2)c(F)c1.Cl", "note": "(centres unmarked) [Example 15, (pyrrolidin-2-yl)methyl 2-(2-fluorobiphenyl-4-yl) propanoate hydrochloride]", "values": [{"measurement": "Animals died/total", "setting": "H1N1 virus [1]; group 2, low dose 25.0 mg/kg", "result": "6/10"}, {"measurement": "Animals with lung lesion/total", "setting": "H1N1 virus [1]; group 2, low dose 25.0 mg/kg", "result": "7/10"}, {"measurement": "Animals died/total", "setting": "H1N1 virus [1]; group 3, mid dose 50.0 mg/kg", "result": "5/10"}, {"measurement": "Animals with lung lesion/total", "setting": "H1N1 virus [1]; group 3, mid dose 50.0 mg/kg", "result": "5/10"}, {"measurement": "Animals died/total", "setting": "H1N1 virus [1]; group 4, high dose 100.0 mg/kg", "result": "4/10"}, {"measurement": "Animals with lung lesion/total", "setting": "H1N1 virus [1]; group 4, high dose 100.0 mg/kg", "result": "4/10"}, {"measurement": "protection from death, lung damages and clinical signs of illness (conclusion in words)", "setting": "H1N1 virus [1]", "result": "protected mice from death and lung damages, delayed and reduced the severity of clinical signs of illness"}]}]}
